Hit rate of the full screen: of about 150,000 compounds, about 540 (0.36%) showed an effect of 50% or more. This is one part of the list.
What follows are molecules tested on Plasmodium falciparum (assay: Primary screen in NF54 nanoGlo assay, in single point, at 2uM, 72h; a lower Z score goes with more inhibition). Conditions: timepoint 72 hour.
Type: functional, Erythrocyte

Row | SMILES | % Inhibition | Z score
1 | O=C(Cc1cccnc1)N1CC(F)(F)C[C@H]1c1nncn1Cc1ccc(F)cc1 | 0% | 0.03
2 | O=C(c1cnn(CCC(F)(F)F)c1)N1CC[C@H](c2cccnc2)C1 | 4% | -0.69
3 | O=C(O)c1cccnc1NCCc1cccc(F)c1 | -10% | 1.78
4 | Cc1cc(CN2CCN(C3CCCC3)C[C@@H](O)C2)on1 | 16% | -2.09
5 | Cc1oc(-c2ccc(-c3ccccc3)cc2)nc1CN1CCC[C@H](CN2CCCC2=O)C1 | -17% | 1.79
6 | Cc1nccn1C1CN(C(=O)c2cccc3[nH]ccc23)C1 | -6% | 0.74
7 | C[C@]12CCC3C(CC[C@H]4CC(O)CC[C@]34C)C1CCC2NC(=O)CN1CCOCC1 (stereo partly drawn) | -10% | 1.26
8 | Cn1nccc1C(=O)NC1CCN(c2nc3cccnc3s2)CC1 | -8% | 1.51
9 | CC1CN(C(=O)c2ccc3[nH]nnc3c2)CC(C)O1 (stereo not drawn) | 6% | -1.18
10 | c1ccc2nc(N3CCN4CCC[C@H]4C3)cnc2c1 | -4% | 0.77
11 | Cc1cccc(CC2(N[C@@H](C)CCn3ccnc3C)CC2)c1 | -3% | 0.53
12 | CCOC(=O)c1noc2nc(C)nc(N3CCCC3)c12 | -10% | 1.84
13 | CC(C)(C)[C@H]1OCC[C@@H]1c1noc(-c2ccnc3ccncc23)n1 | -7% | 1.35
14 | CN(C)CC(=O)N1CC[C@H]1c1cccc(Br)c1 | -8% | 1.55
15 | OCC1(CO)CCCN(Cc2cnc3c(-c4ccccc4)cnn3c2)C1 | 3% | -0.38
16 | CC1CC1CN(C(=O)Nc1cccnc1)C(C)C (stereo not drawn) | -3% | 0.48
17 | Cc1cccc(C(=O)Nc2cccc(C(=O)NC3CC3)c2)n1 | -15% | 2.52
18 | Cc1nc(Cn2nnc(NC(=O)C[C@@H]3C=CCCC3)c2C)no1 | 2% | -0.38
19 | CC(=O)NC1CCC(N[C@@H](C)c2cc3ccccc3o2)CC1 (stereo partly drawn) | -4% | 0.81
20 | COc1ccc([C@@H](NC(=O)c2noc3c2COCC3)C(F)(F)F)cc1F | -9% | 1.29
21 | C[C@@H]1OCCO[C@@H]1C(=O)N1c2ccc(F)cc2NC(=O)C12CCC2 | -4% | 0.6

Row | SMILES | % Inhibition | Z score
22 | Cc1cc(NC(=O)C2(S(C)(=O)=O)CCCC2)nc(C(C)C)n1 | 0% | -0.06
23 | COc1cc(-c2nc(C3CC3)no2)cc2c1OCCO2 | -6% | 0.8
24 | COc1ccc(C(=O)N2CCN(c3nc(CN4CCN(c5ccccc5F)CC4)cc(=O)[nH]3)CC2)cc1 | -6% | 0.96
25 | CN(C)CC1CCC(NS(=O)(=O)c2ccc(OCC(F)(F)F)nc2)CC1 (stereo not drawn) | -2% | 0.3
26 | N#Cc1cccc(CN2CCC3(CCC(=O)N(CCc4ccccn4)C3)CC2)c1 | -3% | 0.31
27 | Cc1cc(CN(C)C(=O)C2=NNC(=O)CC2)no1 | -9% | 0.97
28 | Cc1csc(CNC(=O)N2CC[C@H](N3CCCS3(=O)=O)C2)c1 | -12% | 2.57
29 | Cc1ccc(CNC(=O)N2CC(F)C2)s1 | -6% | 1.12
30 | Cc1ccsc1CNC(=O)Cn1cc(-c2ccccc2)c(C(F)(F)F)n1 | -5% | 0.9
31 | O=C(Nc1ccccc1Cl)c1ccc(F)c(S(=O)(=O)N2CCC(Cc3ccccc3)CC2)c1 | -3% | 0.41
32 | Cc1nc2c([nH]1)CN(Cc1ccc3c(c1)OCCO3)CC2 | -18% | 2.4
33 | Cc1ccc(S(=O)(=O)NC2CNCCC2C)cc1C (stereo not drawn) | -5% | 0.88
34 | COc1cc(OC)c(N2C(=O)CC[C@@]2(C)C(=O)NC2CCCC2)cc1Cl | -10% | 1.83
35 | CCc1ccc(NC(=O)N2C[C@@H]3CN(S(=O)(=O)c4ccccc4)C[C@H](C2)O3)cc1 | -9% | 0.84
36 | Cc1ccccc1CNC(=O)N1CCC2(CC1)[C@H](O)C[C@@H]2OCCO | -3% | 0.54
37 | O=C(N[C@H]1CCN(Cc2ccsc2)C1)c1cnccn1 | -10% | 1.52
38 | Cc1c(-c2cc(-c3cc(CN(C)C)cs3)nc(N)c2C#N)cnn1C | -6% | 0.72
39 | Cc1ncc(C(=O)N2C[C@@H]3CCCN3Cc3ccccc32)s1 | -7% | 0.95
40 | CCN1C(=O)[C@@H]2CN(C(=O)c3ccc4[nH]c(C)c(C)c4c3)CCN2C1=O | 0% | -0.04
41 | O=S(=O)(c1ccccc1C(F)(F)F)N1CC[C@]2(CCN(c3cccnc3)C2)C1 | 38% | -5.11
42 | CN(C(=O)[C@@H]1CCCCC(=O)N1)C(C)(C)CN1CCOCC1 | -3% | 0.31

Row | SMILES | % Inhibition | Z score
43 | CN(CCC1(O)CCCC1)C(=O)c1cccc(F)c1F | -11% | 1.51
44 | Cc1cccc(C(=O)NCCNc2noc(-c3ccccc3)n2)c1 | -9% | 1.37
45 | CC(C)N1CCC(CCNC(=O)[C@H]2CN(C(=O)c3ccncc3)CC23CCCCC3)CC1 | 6% | -1.06
46 | C/C=C/CC(=O)N1CCC2(CC1)C[C@@H](c1ccccc1)C(=O)N(C)C2 | 2% | -0.24
47 | CCCn1cnc(C(N)=O)c1NC(=O)Cc1c(C)noc1C | -12% | 2.33
48 | O=C(O)Cn1nc(C2CCCC2)nc1CCOc1ccccc1 | -6% | 1.09
49 | C=CCCC(=O)NCc1csc(NC(=O)CCC=C)n1 | -16% | 1.6
50 | C[C@@H](CCNC(=O)c1cccnc1NC1CCCC1)c1ccccc1 | -15% | 1.35
51 | NC(=O)c1csc(C(=O)NC[C@H]2CCCC[C@@H]2O)c1 | 8% | -1.03
52 | CC(C)OCCS(=O)(=O)NC1(c2ccccc2)CC1 | -16% | 2.06
53 | CCCc1cc(N2CCO[C@H](c3cccc(Cl)c3)C2)n2ncnc2n1 | -5% | 0.66
54 | CC(NCC1CS(=O)(=O)c2ccccc21)[C@@H]1C[C@H]1C1CC1 (stereo partly drawn) | -3% | 0.41
55 | O=C1N[C@H](Cc2c[nH]cn2)C(=O)NC1C1CCCCCC1 (stereo partly drawn) | 13% | -1.64
56 | Cc1nc(-c2ncc(C(=O)N(C)Cc3noc(C4CC4)n3)c(O)n2)cs1 | -10% | 0.93
57 | CC(NC(C)C1CCCO1)c1nc2ccccc2o1 (stereo not drawn) | 7% | -1.05
58 | Cc1ccccc1-c1ccccc1C(=O)N[C@H]1C[C@H]2OCC[C@@H]12 | -4% | 0.38
59 | Cc1ccc(Cl)cc1-n1ncc2c(=O)n(CC(=O)N3CCN(c4ccc(F)cc4)CC3)cnc21 | -13% | 2.39
60 | CC1CCN(S(=O)(=O)c2ccc(N3CCCCS3(=O)=O)cc2)CC1 | -11% | 1.12
61 | CCCc1ccc(S(=O)(=O)N2CCC3(CC2)NCCCN=C3NC2CCCC2)cc1 | -1% | 0.09
62 | N#Cc1cccc(N2C3CCC2CC(O)C3)n1 (stereo not drawn) | -7% | 1.49
63 | COc1cccc(-c2ccc3c(c2)O[C@H]2CN(CC4CC4)C[C@H]2N(C)C3=O)c1 | 5% | -0.77

Row | SMILES | % Inhibition | Z score
64 | CCCC(=O)Nc1cccc(C(=O)O)c1C | 33% | -4.44
65 | COc1ccc(CCNC(=O)N2CC=C(C(F)(F)F)CC2)cc1F | 6% | -1.17
66 | COc1ccccc1NC(=O)[C@H]1CCCN(c2ncnc3oc(C)c(C)c23)C1 | -9% | 0.91
67 | c1ccc2[nH]c(CCc3nc4ccccc4s3)nc2c1 | 0% | -0.05
68 | COC(=O)CCN(CC(C)C)c1nc(-c2cccnc2)nc2ccccc12 | -12% | 1.51
69 | COCCn1c(CN(C)C)nnc1[C@H]1C[C@@H](N)C1 | 4% | -0.63
70 | CC(C)N1CC[C@@H]2[C@H]1C(=O)NC[C@H](CCC(=O)Nc1ccccc1)N2C | -4% | 0.63
71 | C[C@@H](CCO)CNc1noc(-c2ccccc2)n1 | -6% | 0.94
72 | CCc1nc2c(c(OC3CCN(C(=O)Cc4cccs4)CC3)n1)CCOCC2 | -7% | 0.9
73 | Cc1nc(-c2cc3cccc(C)c3nc2N2CCN(C(=O)c3cccs3)CC2)no1 | -5% | 0.74
74 | O=C(COc1ccccc1C(=O)N1CCCCC1)NCc1ccc2c(c1)OCO2 | -10% | 1.3
75 | CC1(C)CN(C(=O)c2coc(C(N)=O)c2)C[C@@](C)(C(F)(F)F)O1 | -12% | 1.55
76 | Cn1c(CN2C[C@@H]3CC[C@H]2CN(Cc2ccccn2)C3)cc2cc(F)ccc21 | -9% | 1.57
77 | CO[C@H]1CCN(c2[nH]c(=O)n(C)c(=O)c2C#N)CC1(C)C | -5% | 0.68
78 | O=C(c1c[nH]c2cc(Cl)ccc2c1=O)N1CCN(c2ccccc2)CC1 | 0% | 0.03
79 | c1ccc(-n2ncc3c(N4CCC[C@H]4c4ccccn4)ncnc32)cc1 | -1% | 0.3
80 | CCOC[C@H]1CCCN(C(=O)c2cc(=O)n(-c3ccc(C)cc3)[nH]2)C1 | 1% | -0.09
81 | CCC1(NC(=O)CCc2ccc(C)s2)CCOCC1 | -7% | 0.94
82 | Cc1nc(NCCCOC[C@H]2CCOC2)sc1S(N)(=O)=O | -5% | 0.45
83 | CCc1cnc(C)nc1N1CCC[C@@]2(CCC(=O)N(CCOC)C2)C1 | -7% | 1.37
84 | C[C@H]1[C@@H]2[C@@H](O)C([C@H](C)C(=O)NCCN3CCOCC3)CC[C@@]2(C)CC[C@@H]1NC(=O)c1ccncc1 (stereo partly drawn) | 14% | -1.65
